Results as given in the supplement of paper PMC11417369.
This is one part of the list.

system: PfAP2-HC AP2 domain (GST-tagged); assay: gcPBM binding intensity (ln(normalized median fluorescence intensity)); higher = stronger DNA binding
Procedure, shortened: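 GST-tagged P. falciparum DNA-binding domains, expressed in E. coli (about 25 μg on average), were applied for 1 h to an Agilent 4 × 180k array of primer-extended double-stranded 36-bp intergenic genomic probes plus negative controls. The binding buffer was 1× PBS with 1% milk, 0.2 mg/ml BSA, 0.5% salmon testes DNA and 0.03% Triton X-100. Bound protein was detected with Alexa488 anti-GST antibody and scanned at 488 nm. Binding intensity is the highest Masliner-normalised natural-log median intensity across replicate spots of either probe orientation.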

Sequence | gcPBM binding intensity (ln)
TTACAAATAATTTGTTGTACGCTTTTTTTCTTTTTT [XGTACX_site7199] | 9.62
TATATATATATATATGTGCGCATTACTTTAAGAATA | 9.66
GTTAAAAAAAGGAGAGATCTCACACAAATATATATA [GTGCAC_negctrl_site117] | 9.65
AATATATATGAAAAAAGTACTCAAGGAATAAAAAAA [XGTACX_site7720] | 9.8
CATAAATACTATATATGTACGTAATTTTTAAAACAT [XGTACX_site7710] | 9.71
ATGATAAATATAAGTTGTACATATATCTATGTGCAT [XGTACX_site6010] | 9.63
CATTTAATAATAACAAGTACACAAAGATGTATAACA [XGTACX_site8315] | 9.91
GGGTGCCAAATTAGCACACACATATATACCTGAATT [CACACA_site5551] | 10
GTAGGCATTAAAAAATGTACAAAATATTATGAATTG [XGTACX_site1615] | 9.64
TTTTTTTTTATTTGTTGTACGAGGTTTTAAAATTTT [XGTACX_site106] | 9.65
ACAATATCTAGATACACACACATATCTCTCAATCTA [CACACA_site656] | 9.98
TATAATATTCTATATGCATGTACACCATTCTTTATT [TGCATGCA_site688] | 9.89
TATTGTTATCTTTTATGTACTTAAAAAAATAAATTT [XGTACX_site4233] | 9.37
AAAAAGGTTATTGGTACACACATATGTATATAAATA [CACACA_site6402] | 9.94
TAATAAAACATATATACACACATTATATATACATAT [CACACA_site8495] | 9.97
TCTGTTCTTTTTTAATGTACAAGAAATATAAAATTC [XGTACX_site3600] | 9.21
AATTTTTAGTATATAACATAAAATAAAATAAAATAA [GTGCAC_negctrl_site696] | 9.59
TAATAAATAATGGTTACACACAAAATATAAAACTTA [CACACA_site3544] | 9.86
AATTATAAATCTTGCACACAAAAAAAATAATAAAAA [CACACA_site2434] | 9.89
TAAACACATATATAGACATGCAACTAGTTTTTATAA [TGCATGCA_site474] | 9.62
AAATCTTTGTGTGGATGTACTTTTATAAAAAAGAAT [XGTACX_site3830] | 9.57
AAAAAGGAAATAATAACACACATTAATAATTATAAA [CACACA_site3401] | 9.85
TAAAAAGTTATATTCACACACATACACATATAAATA [CACACA_site6398] | 10.1

Sequence | gcPBM binding intensity (ln)
TTATTTTTTTTTTTTTGTACACAATTTGACACATTA [XGTACX_site7983] | 9.76
TTTATTTAATTATGTTGTACATGTAGGATTTATTTT [XGTACX_site7078] | 9.69
TTTTTTTTATTTTGTTGTACGCTTATTTGTATATAT [XGTACX_site7325] | 9.75
TTTATGTGTTATAAATGTACATAATATAATTCGTAT [XGTACX_site3845] | 9.58
TTATCTATAAATACGAGTACGCAAAATCATATAATA [XGTACX_site2447] | 9.58
TTTTAATATTAAGATGTCTTTTACGTTTATTTTGTA [CACACA_negctrl_site765] | 9.75
ATTTACGCGCTTATTACACACACATACAAATAAGGA [CACACA_site9157] | 10
TAATTATTTGCCCTTACTCTGAACATTCGGAATTTA [CACACA_negctrl_site1278] | 9.46
ATCTGCATATATATATGTACATATTTTAGAATGCAC [XGTACX_site708] | 9.63
TTCTTTTTAAATTACACACACATATAAATATGTATA [CACACA_site7618] | 9.94
TTTTTATAAAATTTTATGAGCTCGGAAAAAATAAAC [GTGCAC_negctrl_site637] | 9.48
TATATATAATATATATATATGGAAATTCTTTTAAAT [XGTACX_negctrl_site50] | 9.32
TGTATTATATGTAAATGTACATTTAATATTTTATAT [XGTACX_site4461] | 9.71
GTATGAAATTATAATAGTACATATAAATAAAAAAAA [XGTACX_site8955] | 9.85
CCACAAGTATATAGTAGTACAATTTTTTTCTCTTTA [XGTACX_site4403] | 9.44
ATATAAGGATAACCTAGTACATATTATATGAAACAA [XGTACX_site8459] | 9.88
TACGGTAAATAGTGTTGTACGATACAATTGTTTTCT [XGTACX_site8118] | 9.75
AAGGGGAAAAAAAAAAGTACACAAACATAGGATAAT [XGTACX_site377] | 9.74
CAATTAAAATGCAACGGTACACATAAAAAAAATAAA [XGTACX_site6216] | 9.81
AAAATAAATAAATAAATATATATATATATATATATA [TGCATGCA_negctrl_site558] | 9.49
TCTTTGTATATATGTTCATTTGTAATATATATTCAT [TGCATGCA_negctrl_site467] | 9.75
TATTTGTGAAGAAATTGTACTCATATCTACATTTAT [XGTACX_site2245] | 9.69
ATAATAATATAAAAATGTACATATATTTATAATTGT [XGTACX_site3429] | 9.73

Sequence | gcPBM binding intensity (ln)
ATTTTATTTTTTCACACACACATATATATATATATA [CACACA_site3334] | 10.1
CCCAGGAATATAAAATGTACATAAAAAATACAAATT [XGTACX_site1708] | 9.63
AGTACATTATAGAATACACACCTATACATTTATATA [CACACA_site6391] | 9.82
TTTTTTTTTTTTGGATGTACTTAATGAAAATGTTAC [XGTACX_site8980] | 9.42
TAAGCACAAGCACAAGCACACATTTATATATATATA [CACACA_site883] | 9.68
AATATAATATATATTAGTACATATATATATATATAT [XGTACX_site870] | 9.58
CCTCATATTATAGACACACACAAAAAAAATAAAAAA [CACACA_site180] | 9.98
TCATTATTATATAATTGTACATAATAATTATATCCA [XGTACX_site1801] | 9.58
ATGTATGTGTATATATGTACATAATATATATCTTTT [XGTACX_site8666] | 9.89
TGATTATTTTATATTTGTACACATATCATATAAAAA [XGTACX_site5868] | 9.48
ATGCAAACTAAAAGACGTACAGAAAAGTATCATACT [XGTACX_site8766] | 9.75
ACGTTTTTGAGTAGTACACACACAATAAGGATGGAT [CACACA_site9044] | 10
ACATAATATTGAAGAAGTACAAATTTTATTTATTAT [XGTACX_site4113] | 9.55
ATTATTATGTATTGCCGTACACATATTATCACAGAA [XGTACX_site3740] | 9.71
TCTTCATATATAATTGTACACACAAAAACGACATTG [CACACA_site8645] | 9.84
TATTATAATTAATATACACACGCTTATATATATATA [CACACA_site75] | 9.73
TATAAATAAACATTTACACACTCTTATAATAAATAT [CACACA_site1679] | 9.63
ACATGTACAGAAATTTATATATATATATATATATAT [CACACA_negctrl_site1584] | 9.74
TTATCATTTTTGGAATGTACTTACATTAAATATTTA [XGTACX_site4034] | 9.59
TATATGCAAAATGTCACACATGTGATAAATACATAT [CACACA_site4302] | 9.94
AACTAATAGTATATTACATGCAAAAGTAAAAGTAAA [TGCATGCA_site411] | 9.81
CTCACAATACTTACATGTACATATTATATATATAAA [XGTACX_site1880] | 9.79
GTTGAAATAAAATTAGTGCATATATAAATATATATA | 9.52

Sequence | gcPBM binding intensity (ln)
ACTGAAAAAAGAAATACACACATTCTGGATCAGATA [CACACA_site7760] | 9.85
TCATTCTTGTGTTTATGTACACATATTTATATTGTA [XGTACX_site710] | 10.2
AAAGACAAAAGGAATTGTACATAATATATAAAATAT [XGTACX_site2923] | 9.73
AATTTTATTTAAAGTGCATGTAAAATTAAAACTTTT [TGCATGCA_site989] | 9.22
GGGAAACGATTTAATACACACACGTATTATATATAT [CACACA_site1160] | 10.1
ATATAAAATATGAGTAGTACATATTTTCTCATCTTA [XGTACX_site8595] | 9.56
CATTTTTTGTAAAATCGTACATATACATAAAGTGGT [XGTACX_site3423] | 9.49
CACAAAAGTAAGCACGCACACACAACATGAAATAAA [CACACA_site7938] | 10.5
TATGAATTTATCTACAACATTTGAAATAAATTAAAA [CACACA_negctrl_site79] | 9.35
TAAATAAATACATACACACACATACCTATATTTATA [CACACA_site7466] | 10.4
TTTTATAAAAACAAAAACAAAGGCACTTTCTAAAGA [XGTACX_negctrl_site130] | 9.58
AATATAAATATAAATATAAATATATATATATATATA [TGCATGCA_negctrl_site603] | 9.51
ATAATGTATATTATTGCACACATATATAAAATTATG [CACACA_site8280] | 9.84
TGTATACACATATGTACACACATATAGATGTATATG [CACACA_site7447] | 9.84
ATATAATAATATTATACATGCAAAATATGTTCTTCA [TGCATGCA_site115] | 9.62
AGACTATCATTTTTTTAACACACAAAAAAAATAAAA [CACACA_site9173] | 9.59
ATCGCATATACATTATATTTTATAATAATTATTTTT [GTGCAC_negctrl_site48] | 9.82
AATACACACCTGTGGGTGCTTATAATAAGCCACAAA | 9.74
TATTTTTTTATTTATTGTACTTTAAAAAAAATTAAA [XGTACX_site6167] | 9.33
TAACAAATATTATTTTGTACATAATATATATATATA [XGTACX_site6898] | 9.41
